The text below walks through data of the supplement of paper PMC8183993.

Structures are written as SMILES. Structures can show the parent of a compound that is named as a salt. ± gives the standard deviation of the averaged measurements. In all, about 3,200 compounds were measured (“nuclei count (viability) relative to DMSO”: median about 99, lowest 2% from about 16 on). Some of the results follow.

The subject of this test is U2OS. Description: nuclei count (viability) relative to DMSO (% of DMSO); higher = more viable cells. The settings on record: 10 µM; 24 h. The method, then: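 Primary image-based screen in U2OS cells: compounds at 10 uM for 24 h, then a 1 h o-propargyl-puromycin (OPP) pulse, click labelling, and high-throughput microscopy. Mean cytoplasmic OPP intensity and nuclei count were normalised to DMSO wells within each plate (DMSO = 100) and averaged over triplicate plates.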
For the compound `CC1Cc2ccccc2N1NC(=O)c1ccc(Cl)c(S(N)(=O)=O)c1` (stereo not drawn) [Indapamide], the nuclei count is 98.2.

Compound `CO/N=C(\C(=O)N[C@@H]1C(=O)N2C(C(=O)O)=C(Cn3ccc(=N)n3CCO)CS[C@H]12)c1csc(N)n1` [Cefoselis sulfate] registered a nuclei count of 99.1.

Consider `C=CC(=O)Nc1ccc2ncnc(Nc3cccc(Br)c3)c2c1`, for which the nuclei count worked out at 79.2 ± 4.8.

The compound `CC(C)=CCC/C(C)=C/CC/C(C)=C/CSCC(=O)O` [Farnesylthioacetic acid] returned a nuclei count of 97.9.

Regarding `CC#CCOC(=O)C1=CCCN(C)C1` [Arecaidine but-2-ynyl ester tosylate], the nuclei count was 101.

Regarding `C[C@H](CCC(=O)O)[C@H]1CC[C@H]2[C@@H]3CC[C@@H]4C[C@H](O)CC[C@]4(C)[C@H]3C[C@H](O)[C@]12C` [Sodium Deoxycholic acid], the nuclei count was found to be 112.

As to `C[C@H](CCC(=O)O)[C@H]1CC[C@H]2[C@@H]3CC[C@@H]4C[C@H](O)CC[C@]4(C)[C@H]3C[C@H](O)[C@]12C` [Deoxycholic acid], the nuclei count is 99.6.

On to `COc1cc(C#N)ccc1S(=O)(=O)Nc1ccc2c(c1)cc(C)c(=O)n2C`, for which the nuclei count is 103.

Take `O=C(O)C1=CCCNC1` [Guvacine hydrochloride]: the nuclei count is 101.

With `Cc1cc(CC(=O)O)n(C)c1C(=O)c1ccc(Cl)cc1` [Zomepirac sodium salt], the nuclei count stood at 99.

`CCCCCCCCCCCCCCCC(=O)O[C@@H]1[C@@H](O)[C@@H](O)[C@@H]([C@H](NC(=O)[C@@H]2C[C@@H](CCC)CN2C)[C@H](C)Cl)O[C@@H]1SC` [Clindamycin palmitate HCl] returned a nuclei count of 90.7.

As for `CCN(CC)CCCC(C)Nc1ccnc2cc(Cl)ccc12` (stereo not drawn) [Chloroquine diphosphate], the nuclei count is 103.

`CCN(CC)CCCC(C)Nc1ccnc2cc(Cl)ccc12` (stereo not drawn) [Chloroquine] registered a nuclei count of 96.6.

`CS(=O)(=O)c1ccc([C@@H](O)[C@@H](CF)NC(=O)C(Cl)Cl)cc1` [Florfenicol] yielded a nuclei count of 90.3.

Compound `O=C(O)Cn1c(C(=O)Nc2nc(-c3ccccc3Cl)cs2)cc2ccccc21` registered a nuclei count of 102.

Turning to `CCNC(=O)[C@H]1O[C@@H](n2cnc3c(N)nc(NCCc4ccc(CCC(=O)O)cc4)nc32)[C@H](O)[C@@H]1O`, the nuclei count came out at 99.1.

`O=C(COc1cccc2c(=O)[nH]ccc12)c1ccccc1` displayed a nuclei count of 107.

`Nc1ccc(S(=O)(=O)NC(=O)c2ccccc2)cc1` [Sulfabenzamide] registered a nuclei count of 104.

With `CC(C)c1nc(N(C)S(C)(=O)=O)nc(-c2ccc(F)cc2)c1/C=C/[C@@H](O)C[C@@H](O)CC(=O)O` [Rosuvastatin calcium (Crestor)], the nuclei count was found to be 107.

As for `C=C(CC)C(=O)c1ccc(OCC(=O)O)c(Cl)c1Cl` [Ethacrynic acid], the nuclei count worked out at 109.

The compound `CCCC[P+](CCCC)(CCCC)Cc1ccc(NC(=O)C(Cc2ccc3ccccc3c2)NC(=NC2CCCCC2)NC2CCCCC2)cc1` (stereo not drawn) had a nuclei count of 94.1.

As to `CCCCCCCCCCCCCCCC(=O)O[C@H](CC(=O)O)C[N+](C)(C)C` (racemic) [(±)-Palmitoylcarnitine chloride], the nuclei count was 94.5.

`C1N2CN3CN1CN(C2)C3` [Methenamine] came in with a nuclei count of 107.

`O=C(O)C1=C[C@@H](O)[C@@H](O)[C@H](O)C1` [Shikimic acid (Shikimate)] returned a nuclei count of 100.

As for `C[Se]CC[C@H](N)C(=O)O` [Selenomethionine], the nuclei count was found to be 94.8.

In turn, `O=C1NCCN1c1ncc([N+](=O)[O-])s1` [Niridazole] had a nuclei count of 90.4.

In turn, `CCCCCN(C)CCC(O)(P(=O)(O)O)P(=O)(O)O` [Ibandronate sodium] yielded a nuclei count of 105.7 ± 1.

The compound `CN=c1nc(-c2ccccc2)n(-c2ccccc2)s1` yielded a nuclei count of 108.

`C[C@@H](O)[C@H]1C(=O)N2C(C(=O)O)=C(SCCNC=N)C[C@H]12` [Imipenem] showed a nuclei count of 100.

`CC[C@]12C=CCN3CC[C@@]4(c5cc([C@@]6(C(=O)OC)C[C@@H]7C[C@@H](C(C)(F)F)CN(Cc8c6[nH]c6ccccc86)C7)c(OC)cc5N(C)[C@H]4[C@@](O)(C(=O)OC)[C@@H]1OC(C)=O)[C@@H]32` [Vinflunine Tartrate] displayed a nuclei count of 14.1.

As for `c1ccc2c(c1)CCCC2C1=NCCN1` (stereo not drawn) [Tetrahydrozoline hydrochloride], the nuclei count stood at 90.5.

Turning to `CC(C)(C)C(=O)OCOC(=O)[C@@H]1N2C(=O)[C@@H](/N=C/N3CCCCCC3)[C@H]2SC1(C)C` [Pivmecillinam hydrochloride], the nuclei count came out at 104.

With `O=C(c1ccc(F)cc1)C1CCN(CCCCc2ccccc2)CC1` [4-(4-Fluorobenzoyl)-1-(4-phenylbutyl)-piperidine oxalate], the nuclei count was determined as 94.8.

Consider `OCC(O)CN1CCN(c2ccccc2)CC1` (racemic) [Dropropizine (R,S)], for which the nuclei count came to 108.

`CC(C)OC(=O)C(C(=O)OC(C)C)=C1SC=CS1` [Malotilate] yielded a nuclei count of 91.2.

For `CNc1ncnc2c1ncn2[C@@H]1O[C@H](CO)[C@@H](O)[C@H]1O` [N6-methyladenosine], the nuclei count is 97.6.

Compound `C[C@H](NCc1ccc(OCc2cccc(F)c2)cc1)C(N)=O` gave a nuclei count of 97.8.

Turning to `CCn1cc(C(=O)O)c(=O)c2cc(F)c(N3CCNCC3)nc21` [Enoxacin], the nuclei count was 110.

`CC(=O)OCC(=O)NCCCOc1cccc(CN2CCCCC2)c1` [Roxatidine Acetate HCl]: the nuclei count is 108.

The compound `OC[C@@H](O)[C@@H](O)[C@H](O)[C@H](O)CO` [D-Mannitol (Osmitrol)] had a nuclei count of 102.

The compound `C=CCc1ccc(O)c(OC)c1` [Eugenol] gave a nuclei count of 108.

`CN1Cc2c(C(=O)OC(C)(C)C)ncn2-c2ccsc2C1=O` gave a nuclei count of 109.

In turn, `N#C/C(=C\c1ccc(O)c(O)c1)C(=O)Nc1ccccc1` yielded a nuclei count of 83.4.

With `CNc1cc2c(Nc3cccc(Br)c3)ncnc2cn1`, the nuclei count was found to be 46.6.

Compound `OC[C@H]1OC(O)[C@H](O)[C@@H](O)[C@@H]1O` (stereo partly drawn) [Dextrose (D-glucose)] had a nuclei count of 103.

`O=C1NC(=O)C(c2ccccc2[N+](=O)[O-])=C1Nc1ccc(O)c(Cl)c1` displayed a nuclei count of 96.9 ± 2.1.

With `O=C1NC(=O)/C(=C/c2ccc3nccc(-c4ccncc4)c3c2)S1`, the nuclei count was found to be 98.2.

Compound `CCCc1ncc(C[n+]2ccccc2C)c(N)n1` [Amprolium hydrochloride] showed a nuclei count of 104.

`NCC1CCC(C(=O)N[C@@H](Cc2ccccc2)C(=O)Nc2ccc(CC(=O)O)cc2)CC1` (stereo partly drawn) gave a nuclei count of 101.

For `CC(C(=O)O)c1cccc(Oc2ccccc2)c1` (stereo not drawn) [Fenoprofen calcium salt dihydrate], the nuclei count worked out at 95.1.

`CC(C(=O)O)c1cccc(Oc2ccccc2)c1` (stereo not drawn) [Fenoprofen calcium hydrate] returned a nuclei count of 98.9.

`Oc1ccc(C2CNCCc3c2cc(O)c(O)c3Cl)cc1` (stereo not drawn) [Fenoldopam hydrochloride] displayed a nuclei count of 104.

Turning to `C[C@@H]1CN(CCCn2c3ccccc3c3ccccc32)C[C@H](C)N1` [Rimcazole dihydrochloride], the nuclei count was 80.

Take `CC(C)(C)c1ccc(/C=C/C(=O)Nc2ccc3c(c2)OCCO3)cc1`: the nuclei count was found to be 96.6.

Consider `O=C(CCCCCCC(=O)Nc1cccnc1)NO` [Pyroxamide], for which the nuclei count stood at 54.1.

Compound `CCc1ccc(CCOc2ccc(CC3SC(=O)NC3=O)cc2)nc1` (stereo not drawn) [Pioglitazone] yielded a nuclei count of 100.7 ± 0.79.

The compound `Cc1ccc(S(=O)(=O)C=CC#N)cc1` displayed a nuclei count of 18.5.

Take `Cc1ccc(N(CC2=NCCN2)c2cccc(O)c2)cc1` [Phentolamine HCl]: the nuclei count was 99.6.

Take `Cc1ccc(N(CC2=NCCN2)c2cccc(O)c2)cc1` [Phentolamine hydrochloride]: the nuclei count is 106.

The compound `CC(Oc1ccc(O)cc1)(P(=O)(O)O)P(=O)(O)O` returned a nuclei count of 105 ± 0.12.

`CCCSc1ccc2[nH]c(NC(=O)OC)nc2c1` [Albendazole] gave a nuclei count of 30.6.

As for `CCCSc1ccc2[nH]c(NC(=O)OC)nc2c1` [Albendazole (Albenza)], the nuclei count amounted to 30.8.

On to `Cc1c(Cl)cccc1Nc1ccccc1C(=O)O` [Tolfenamic acid], for which the nuclei count was 111.

For `CN(C)CCC1(c2ccc(Cl)cc2)Cc2ccccc2C(=O)O1` (racemic) [(±)-AC 7954 hydrochloride], the nuclei count was 105.

In the case of `CO[C@H]1/C=C/O[C@@]2(C)Oc3c(C)c(O)c4c(O)c(c(/C=N/N5CCN(C)CC5)c(O)c4c3C2=O)NC(=O)/C(C)=C\C=C\[C@H](C)[C@H](O)[C@@H](C)[C@@H](O)[C@@H](C)[C@H](OC(C)=O)[C@@H]1C` [Rifampin (Rifadin, Rimactane)], the nuclei count came out at 105.

Turning to `CO[C@H]1/C=C/O[C@@]2(C)Oc3c(C)c(O)c4c(O)c(c(/C=N/N5CCN(C)CC5)c(O)c4c3C2=O)NC(=O)/C(C)=C\C=C\[C@H](C)[C@H](O)[C@@H](C)[C@@H](O)[C@@H](C)[C@H](OC(C)=O)[C@@H]1C` [Rifampicin], the nuclei count amounted to 95.2 ± 11.

On to `COc1cc(F)c(C(C)C)cc1-c1ccc(C(F)(F)F)cc1CN1C(=O)O[C@H](c2cc(C(F)(F)F)cc(C(F)(F)F)c2)[C@@H]1C` [Anacetrapib (MK-0859)], for which the nuclei count came to 96.6.

The compound `CC[C@H]1OC(=O)[C@H](C)[C@@H](O[C@H]2C[C@@](C)(OC)[C@@H](O)[C@H](C)O2)[C@H](C)[C@@H](O[C@@H]2O[C@H](C)C[C@H](N(C)C)[C@H]2O)[C@](C)(O)C[C@@H](C)C(=O)[C@H](C)[C@@H](O)[C@]1(C)O` [Erythromycin (E-Mycin)] came in with a nuclei count of 98.4.

`CC[C@H]1OC(=O)[C@H](C)[C@@H](O[C@H]2C[C@@](C)(OC)[C@@H](O)[C@H](C)O2)[C@H](C)[C@@H](O[C@@H]2O[C@H](C)C[C@H](N(C)C)[C@H]2O)[C@](C)(O)C[C@@H](C)C(=O)[C@H](C)[C@@H](O)[C@]1(C)O` [Erythromycin] showed a nuclei count of 109.

Take `O=C1c2ccccc2C(=O)C1c1ccccc1` [Phenindione]: the nuclei count stood at 101.

The compound `CC(C)[C@@H](C)/C=C/[C@@H](C)[C@H]1CC[C@H]2C3=CC=C4C[C@@H](O)CC[C@]4(C)[C@H]3CC[C@]12C` [Ergosterol] had a nuclei count of 103.

As for `O=C(c1cc(Cc2n[nH]c(=O)c3ccccc23)ccc1F)N1CCN(C(=O)C2CC2)CC1` [Olaparib (AZD2281)], the nuclei count is 85.3.

As to `O=C(c1cc(Cc2n[nH]c(=O)c3ccccc23)ccc1F)N1CCN(C(=O)C2CC2)CC1` [Olaparib], the nuclei count was found to be 75.7.
